# From PubChem BioAssay AID1671188 (National Center for Advancing Translational Sciences (NCATS), 2021)
# Screen size: about 100,000 compounds; about 250 (0.25%) were called active. The inconclusive results got no clear call from the source; some entries with a clear call stand among them for comparison. The call rests on the fitted dose curve; in most records, active means well fitted inhibition curve with a large enough effect; inconclusive means small, poorly fitted or top-dose-only effect; inactive means flat fitted curve, though single readings scatter. No potency is given beside an inconclusive call; the fits are too rough.
# Target: Alanine aminotransferase 2 (Homo sapiens) (UniProt Q8TD30)
# UniProt Q8TD30, sequence (Q8TD30 whole entry, looked up): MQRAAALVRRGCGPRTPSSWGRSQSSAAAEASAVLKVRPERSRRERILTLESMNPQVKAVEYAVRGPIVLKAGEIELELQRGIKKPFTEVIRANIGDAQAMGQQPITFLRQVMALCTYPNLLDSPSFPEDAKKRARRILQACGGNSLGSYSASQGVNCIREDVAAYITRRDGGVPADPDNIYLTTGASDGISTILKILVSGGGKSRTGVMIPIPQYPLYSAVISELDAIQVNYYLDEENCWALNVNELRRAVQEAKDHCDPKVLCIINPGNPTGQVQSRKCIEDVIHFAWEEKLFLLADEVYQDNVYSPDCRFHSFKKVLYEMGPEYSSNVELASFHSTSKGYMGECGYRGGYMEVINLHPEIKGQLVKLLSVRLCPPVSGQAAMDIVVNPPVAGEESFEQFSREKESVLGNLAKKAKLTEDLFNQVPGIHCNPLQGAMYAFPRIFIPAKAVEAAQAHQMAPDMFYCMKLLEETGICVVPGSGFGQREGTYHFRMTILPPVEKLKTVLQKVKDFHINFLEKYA
# Assay: Primary qHTS assay for inhibitors of Glutamate pyruvate transaminase 2 (GPT2); further: nearly all actives have a fitted effect of over 60% in size
# Conditions: Recombinant GPT2, coupled pyruvate oxidase/HRP Amplex Red fluorescence; series mostly up to 57.7 µM
# Summary of the method: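 Recombinant GPT2 (10ng/uL) with 250uM a-KG and 2mM L-alanine, 30 min at room temperature, in HEPES pH 7.5 buffer. Pyruvate detected by pyruvate oxidase/HRP/Amplex Red fluorescence after 30 min in the dark; AOA (50uM) as positive control.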
# Potency means the concentration at half of the fitted maximal effect; tags describe the fitted curve by direction and shape.
row,SMILES,Potency
1,COCCOCc1nc(C2CCN(C(=O)NCc3ccc(OC)cc3)CC2)no1,inactive
2,C=C(COC(=O)C(C)C)C1Oc2cc(C(C)=O)ccc2C1OC(=O)C(C)C (stereo not given),inactive
3,NC(=O)Cc1c[nH]c2ncc(-c3ccccc3F)cc12,"inconclusive [inhibitor, partial curve, poor fit]"
4,COc1ccc(CN2Cc3[nH]cnc3C[C@H]2c2nc(C(C)C)no2)cc1,"inconclusive [inhibitor, full curve]"
5,CC(C)(C)NC(=O)[C@H]1CC[C@H]2[C@@H]3CC[C@H]4NC(=O)CC[C@]4(C)[C@H]3CC[C@]12C,"inconclusive [inhibitor, single point]"
6,O=C(Cn1ccc2ccccc21)Nc1ccc2c(c1)C(=O)N1CCC[C@H]1C(=O)N2,"inconclusive [inhibitor, single point]"
7,C[C@H]1O[C@@H](O[C@H]2CC[C@@]3(C)C(CC[C@]4(C)C3CC=C3C5CC(C)(C)CC[C@]5(C(=O)O)CC[C@]34C(=O)O)C2(C)C)[C@H](O)[C@@H](O)[C@@H]1O (stereo not given in full),"inconclusive [inhibitor, single point]"
8,Cc1ccc(CC(=O)N2CCC(Cc3nc(-c4ccccc4)no3)CC2)cc1,inactive
9,C=CCc1cc(-c2c(-c3ccccc3)ncn2CCOCCO)cc(OC)c1O,"inconclusive [inhibitor, single point]"
10,COc1ccc(OC)c(S(=O)(=O)N2CC(N3CC(C(=O)N4CCCC4)CC3=O)C2)c1 (stereo not given),inactive
11,CN1CC2(CCN(C(=O)NCCc3ccccc3)CC2)CC1C(=O)N1CCOCC1 (stereo not given),inactive
12,COCc1nc(C2CCN(S(=O)(=O)c3cccc(OC)c3)C2)no1 (stereo not given),inactive
13,CC(C)CNC(=O)C1c2ccccc2C(=O)N(Cc2ccccc2)C12CCCC2 (stereo not given),"inconclusive [inhibitor, single point]"
14,Cc1ccccc1CNC(=O)c1ccc2c(c1)C(O)CCCCCN2C (stereo not given),inactive
15,Cc1cnc(CC2CCCN(C(=O)NC(C)(C)C)C2)n1Cc1ccc(F)cc1 (stereo not given),inactive
16,COc1cccc(NC(=O)c2cc3c(N(C)Cc4ccccc4)nc(C)cn3n2)c1,inactive
17,O=C(CC1CCCC1)N1CCC(Nc2cccnc2)C1 (stereo not given),"inconclusive [inhibitor, single point]"
18,O=C(NCc1nc(-c2ccncc2)n[nH]1)C1CCCN(C2CCCC2)C1 (stereo not given),inactive
19,Cc1noc(C)c1[S+](=O)([O-])N1CCn2ncc(C(=O)NCc3ccc(Cl)nc3)c2C1,"inconclusive [inhibitor, full curve]"
20,CC(C)(C)c1cc(CC2(NCc3ccc(Cl)cc3)COC2)no1,"inconclusive [inhibitor, single point]"
